Consider 68 compounds from the supplement of paper PMC5919970.

The structures appear in SMILES notation. Where a name gives a salt, the structure may show the parent alone. Over roughly 2,000 compounds, “fractional viability relative to vehicle” has its median near 0.92; the lowest 2% begin near 0.11. The list shows a part of the results.

The assay concerns TYKNU. In words: fractional viability relative to vehicle; TYKNU is a high-grade serous ovarian cancer line; higher = less growth inhibition. Particulars: 72 h, genotype: OPA1 knockout (sgOPA1 #2). The essentials: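 TYKNU control cells or lentiCRISPRv2 knockout derivatives were seeded at 500 cells per well into drug-stamped 384-well plates holding a ~2100-compound library at 2 or 10 μM, in duplicate. Cells were grown at 37 °C in 5% CO2 in RPMI 1640 with 10% FBS, and drug treatment lasted 72 h. Viability was read by Cell Titer Glo luminescence. Duplicate treatment wells were averaged and normalised to duplicate control wells from the same plate position.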

`N#C[C@H](O[C@@H]1O[C@H](C(=O)O)[C@@H](O)[C@H](O)[C@H]1O)c1ccccc1` [Laetrile]: the fractional viability amounted to 1.07 (2uM) and 0.81 (10uM).
Regarding `C[C@]12CCC(=O)C(O)=C1CC[C@@H]1[C@@H]2CC[C@]2(C)C(=O)CC[C@@H]12` [Formestane], the fractional viability is 1.01 (2uM) and 0.829 (10uM).
The compound `CCOc1ccccc1-n1c(C(C)N2CCN(C(=O)COc3ccc(Cl)cc3)CC2)nc2ccccc2c1=O` (stereo unspecified) [Erastin] had a fractional viability (2uM) of 0.45 and a fractional viability (10uM) of 0.0976.
Take `CN1[C@@H]2CC[C@H]1C[C@@H](OC(=O)C(CO)c1ccccc1)C2` (stereo partly specified) [Atropine sulfate monohydrate]: the fractional viability is 1.12 (2uM) and 0.997 (10uM).
On to `CNCC(O)c1ccc(O)cc1` (stereo unspecified) [Synephrine], for which the fractional viability was determined as 1.12 (2uM) and 0.926 (10uM).
Take `CNCC(O)c1ccc(O)cc1` (stereo unspecified) [Synephrine HCl]: the fractional viability by setting is: (2uM) 0.999; (10uM) 0.858.
On the same counts, the results for `CCc1c(C(=O)C(N)=O)c2c(OCC(=O)O)cccc2n1Cc1ccccc1` are 1.1 and 0.9.
On the same counts, the results for `Cc1sc2c(c1C)C(c1ccc(Cl)cc1)=N[C@@H](CC(=O)Nc1ccc(O)cc1)c1nnc(C)n1-2` are 0.634 and 0.619.
For `COc1ccc(C(CN(C)C)C2(O)CCCCC2)cc1` (stereo unspecified) [Venlafaxine] the same measures were 1.21 and 1.
Take `CN(C)C(=O)Oc1ccc[n+](C)c1` [Pyridostigmine Bromide]: the fractional viability is, setting by setting: (2uM) 1.05; (10uM) 1.07.
With `CN1CCN(c2nc3ccccc3nc2Cl)CC1`, the fractional viability is 1.15 (2uM) and 0.988 (10uM).
Consider `Cc1cc2c(C(C)C)c(O)c(O)c(C=O)c2c(O)c1-c1c(C)cc2c(C(C)C)c(O)c(O)c(C=O)c2c1O` [Gossypol], for which the fractional viability stood at 1.03 (2uM) and 0.643 (10uM).
On the same counts, the results for `CC(C)NCC(O)c1ccccc1Cl` (stereo unspecified) [Clorprenaline HCl] are 0.911 and 0.968.
On the same counts, the results for `C[C@@H]1[C@H](O)[C@@H](C)/C=C/C=C/CC/C=C/C=C/C=C/C=C/[C@H](O[C@H]2O[C@@H](C)[C@H](O)[C@@H](N)[C@H]2O)C[C@@H]2O[C@](O)(C[C@@H](O)[C@H](O)CC[C@@H](O)C[C@@H](O)C[C@@H](O)CC(=O)O[C@H]1C)C[C@H](O)[C@H]2C(=O)O` [Nystatin (Fungicidin)] are 1.17 and 0.963.
On the same counts, the results for `O=c1[nH]c2ccc(Cl)cc2c(N[C@@H]2CN3CCC2CC3)c1-c1nc2ccccc2[nH]1` are 0.352 and 0.14.
For the compound `CCN(CC)C(=O)c1ccc(C2=CC3(CCNCC3)Oc3cccc(O)c32)cc1`, the fractional viability (2uM) was determined as 1.15 and the fractional viability (10uM) was found to be 0.835.
For the compound `Cc1sc2c(c1C)C(c1ccc(Cl)cc1)=N[C@@H](CC(=O)OC(C)(C)C)c1nnc(C)n1-2`, the fractional viability by setting is: (2uM) 0.757; (10uM) 0.641.
For `Cn1c(COP(=O)(NCCBr)NCCBr)cnc1[N+](=O)[O-]` the same measures were 1.39 and 1.12.
For `CCc1cc2c(s1)-n1c(C)nnc1CN=C2c1ccccc1Cl` [Etizolam] the same measures were 0.761 and 0.887.
On the same counts, the results for `OC(c1ccccc1)(c1ccccc1)C1CCNCC1` [Azacyclonol] are 1.05 and 0.983.
With `COc1cc(OC)c(OC)cc1C=O` [Asaraldehyde], the fractional viability by setting is: (2uM) 1.16; (10uM) 1.15.
On the same counts, the results for `CCC1(C)CC(=O)NC(=O)C1` [Bemegride] are 1.11 and 0.966.
On the same counts, the results for `Cc1ccccc1-n1c(Cn2ncc3c(N)ncnc32)nc2cccc(C)c2c1=O` are 0.996 and 0.903.
Turning to `CCN(Cc1ccc(Cl)nc1)/C(=C/[N+](=O)[O-])NC` [Nitenpyram], the fractional viability is, setting by setting: (2uM) 0.837; (10uM) 0.769.
For `C/C(O)=C(\C#N)C(=O)Nc1cc(Br)ccc1Br` the same measures were 0.71 and 0.714.
For `C=C1C[C@@H]2[C@H](CC[C@]3(C)C(=O)CC[C@@H]23)[C@@]2(C)C=CC(=O)C=C12` [Exemestane] the same measures were 1.17 and 1.19.
On the same counts, the results for `C[C@H]1CNCCc2ccc(Cl)cc21` [Lorcaserin HCl] are 1.04 and 1.02.
For the compound `CN1C(=O)CCS(=O)(=O)C1c1ccc(Cl)cc1` (stereo unspecified) [Chlormezanone], the fractional viability worked out at 1.08 (2uM) and 0.891 (10uM).
For `COc1cc(C)[nH]c(=O)c1CNC(=O)c1c(C)n([C@H](C)C2CCOCC2)c2ccccc12`, the fractional viability is 0.863 (2uM) and 0.859 (10uM).
`c1ccc2c(c1)sc1ccccc12` [Dibenzothiophene] had a fractional viability (2uM) of 0.95 and a fractional viability (10uM) of 0.884.
For `O=P1(N(CCCl)CCCl)NCCCO1` (stereo unspecified) [Cyclophosphamide Monohydrate] the same measures were 1.21 and 0.837.
Regarding `CCCCCCCCCCCCCCCC[n+]1ccccc1` [Cetylpyridinium Chloride], the fractional viability reads like this: (2uM) 0.577; (10uM) 0.166.
For `Cc1ccc(-n2nccn2)c(C(=O)N2CCN(c3nc4cc(Cl)ccc4o3)CC[C@H]2C)c1` [Suvorexant (MK-4305)] the same measures were 1.08 and 0.917.
Take `CCCN1CCO[C@@H]2c3cc(O)ccc3OC[C@H]21`: the fractional viability (2uM) stood at 0.95 and the fractional viability (10uM) was found to be 1.01.
Regarding `COc1ccc(CC2NCCc3cc(OC)c(OC)cc32)cc1OC` (stereo unspecified) [Tetrahydropapaverine HCl], the fractional viability was determined as 0.915 (2uM) and 0.866 (10uM).
Regarding `c1ccc([C@@H]2C[C@H]2NC2CCNCC2)cc1`, the fractional viability came out at 0.959 (2uM) and 0.751 (10uM).
On the same counts, the results for `C[C@]12CC[C@H](O)CC1=CC[C@@H]1[C@@H]2CC[C@]2(C)C(=O)CC[C@@H]12` [Dehydroepiandrosterone (DHEA)] are 0.991 and 0.897.
On to `O=[N+]([O-])c1ncc[nH]1` [Azomycin], for which the fractional viability is, setting by setting: (2uM) 0.902; (10uM) 0.589.
For the compound `CC(C)OC(=O)[C@H](C)N[P@](=O)(CO[C@H](C)Cn1cnc2c(N)ncnc21)Oc1ccccc1` [Tenofovir Alafenamide (GS-7340)], the fractional viability reads like this: (2uM) 1.03; (10uM) 0.922.
On the same counts, the results for `CC[C@H](C)[C@@H]([C@@H](CC(=O)N1CCC[C@H]1[C@H](OC)[C@@H](C)C(=O)N[C@H](C)[C@@H](O)c1ccccc1)OC)N(C)C(=O)[C@@H](NC(=O)[C@@H](NC)C(C)C)C(C)C` [Monomethyl auristatin E (MMAE)] are 0.293 and 0.226.
On the same counts, the results for `CCOC(=O)c1cncn1[C@H](C)c1ccccc1` [Etomidate] are 1.25 and 0.91.
For `CC(O)(CS(=O)(=O)c1ccc(F)cc1)C(=O)Nc1ccc(C#N)c(C(F)(F)F)c1` (stereo unspecified) [Bicalutamide] the same measures were 1.25 and 1.18.
With `CCN1CCN(C(=O)Cc2ccc(Nc3ncc(F)c(Nc4ccc(C(=O)Nc5ccccc5Cl)cc4)n3)cc2)CC1` [Aurora A Inhibitor I], the fractional viability runs as follows: (2uM) 1.03; (10uM) 0.0801.
For the compound `O=c1cccc2n1C[C@@H]1CNC[C@H]2C1` [Cytisine], the fractional viability (2uM) was determined as 1.09 and the fractional viability (10uM) came to 1.1.
On the same counts, the results for `Cc1cc(C(C#N)c2ccc(Cl)cc2)c(Cl)cc1NC(=O)c1cc(I)cc(I)c1O` (stereo unspecified) [Closantel Sodium] are 0.919 and 1.04.
On the same counts, the results for `Cc1cc(C(C#N)c2ccc(Cl)cc2)c(Cl)cc1NC(=O)c1cc(I)cc(I)c1O` (stereo unspecified) [Closantel] are 0.998 and 0.919.
On the same counts, the results for `O=C(O)c1nn(Cc2ccc(Cl)cc2Cl)c2ccccc12` [Lonidamine] are 0.911 and 1.06.
Take `CC(C)(C)c1cc(C=C(C#N)C#N)cc(C(C)(C)C)c1O` [Tyrphostin 9]: the fractional viability (2uM) is 0.524 and the fractional viability (10uM) stood at 0.396.
For `CC(NC(C)(C)C)C(=O)c1cccc(Cl)c1` (stereo unspecified) [Amfebutamone HCl] the same measures were 0.863 and 0.854.
For `CC(C)(C)c1cc(C=C(C#N)C#N)cc(Br)c1O` the same measures were 0.899 and 0.761.
For the compound `CC(C)[C@]12O[C@H]1[C@@H]1O[C@]13[C@]1(O[C@H]1C[C@H]1C4=C(CC[C@@]13C)C(=O)OC4)[C@@H]2O` [Triptolide (PG490)], the fractional viability (2uM) turned out to be 0.572 and the fractional viability (10uM) amounted to 0.473.
For `O=C1CC[C@@]2(O)[C@H]3Cc4ccc(O)c5c4[C@@]2(CCN3CC2CC2)[C@H]1O5` [Naltrexone HCl] the same measures were 1.07 and 1.12.
For `Cn1c(CCCC(=O)O)nc2cc(N(CCCl)CCCl)ccc21` [Bendamustine HCl] the same measures were 1.1 and 1.11.
For `[O-][n+]1ccccc1[S-].[O-][n+]1ccccc1[S-].[Zn+2]` [Zinc Pyrithione] the same measures were 0.0671 and 0.0336.
Regarding `Cc1sc2c(c1C)C(c1ccc(Cl)cc1)=N[C@@H](CC(N)=O)c1nnc(C)n1-2`, the fractional viability runs as follows: (2uM) 0.675; (10uM) 0.589.
On the same counts, the results for `N[C@@H]1C[C@H]1c1ccccc1` [Tranylcypromine (2-PCPA) HCl] are 0.95 and 1.01.
As for `CN(C)CCc1ccc(O)cc1` [Hordenine], the fractional viability is, setting by setting: (2uM) 1.08; (10uM) 0.824.
On the same counts, the results for `C/C(=C\c1csc(C)n1)[C@@H]1C[C@@H]2O[C@@H]2CCC[C@H](C)[C@H](O)[C@@H](C)C(=O)C(C)(C)[C@@H](O)CC(=O)O1` [Epothilone A] are 0.475 and 0.629.
On the same counts, the results for `COC1=C[C@@H]2[C@@H]3Cc4ccc(OC)c(O)c4[C@]2(CCN3C)CC1=O` [Sinomenine] are 0.995 and 0.891.
For `COc1ccc(N(C(=O)Oc2c(C)cccc2C)c2ccnc(Nc3ccc(N4CCN(C)CC4)cc3)n2)c(OC)c1` the same measures were 0.923 and 0.895.
Regarding `CN1[C@@H]2C[C@@H](OC(=O)[C@H](CO)c3ccccc3)C[C@H]1[C@@H]1O[C@@H]12` [Scopolamine HBr], the fractional viability runs as follows: (2uM) 1.29; (10uM) 0.892.
Consider `Cc1cccc(C)c1NC(=O)CN1CCCC1=O` [Nefiracetam], for which the fractional viability is, setting by setting: (2uM) 0.87; (10uM) 0.978.
On the same counts, the results for `Cc1cccc(Cc2c[nH]cn2)c1C` [Detomidine HCl] are 0.976 and 0.944.
For `Cn1cc(C2=C(c3cn(C4CCN(Cc5ccccn5)CC4)c4ccccc34)C(=O)NC2=O)c2ccccc21` the same measures were 1.04 and 0.99.
For `C[C@@H]1CC[C@@]2(OC1)O[C@H]1C[C@H]3[C@@H]4CC=C5C[C@@H](O[C@@H]6O[C@H](CO)[C@@H](O[C@@H]7O[C@@H](C)[C@H](O)[C@@H](O)[C@H]7O)[C@H](O)[C@H]6O[C@@H]6O[C@@H](C)[C@H](O)[C@@H](O)[C@H]6O)CC[C@]5(C)[C@H]4CC[C@]3(C)[C@H]1[C@@H]2C` [Dioscin] the same measures were 0.289 and 0.0918.
On to `C=CCN1CC[C@]23c4c5ccc(O)c4O[C@H]2C(=O)CC[C@@]3(O)[C@H]1C5` [Naloxone HCl], for which the fractional viability by setting is: (2uM) 0.816; (10uM) 0.957.
As for `O=C(NCC1CCOCC1)c1cnc(Nc2ccc(Cl)cc2Cl)nc1C(F)(F)F`, the fractional viability runs as follows: (2uM) 0.956; (10uM) 0.913.
For the compound `CC(=O)O[C@H]1C[C@@H]2CC[C@@H]3[C@H](CC[C@@]4(C)[C@H]3C[C@H]([N+]3(C)CCCCC3)[C@@H]4OC(C)=O)[C@@]2(C)C[C@@H]1[N+]1(C)CCCCC1` [Pancuronium dibromide], the fractional viability (2uM) turned out to be 1 and the fractional viability (10uM) is 0.976.
